Laboratory results as given in PubChem BioAssay AID493208 (National Center for Advancing Translational Sciences (NCATS), 2011).
The whole screen tested about 44,000 compounds, of which about 340 (0.77%) were called active. Not shown: some 5% with an inconclusive outcome. Calls follow the shape of the dose curve; as a rule, active = well fitted inhibition curve with a large enough effect; inconclusive = small, poorly fitted or top-dose-only effect; inactive = flat fitted curve, though single readings scatter. The list shows a part of the results.

assay: Acumen qHTS Assay for Inhibitors of the mTORC1 Signaling Pathway in MEF (Tsc2-/-, p53-/-) Cells: Sytravon; conditions: phospho-rpS6 immunofluorescence/PI, 24 h; series mostly up to 38.3 µM; activity change, negative = inhibition: at the top concentration;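 also: plate controls were DMSO for no effect and rapamycin for full effect; nearly all actives have a fitted effect of over 50% in size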
Procedure, shortened: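 Immunofluorescence of rpS6 phosphorylation in Tsc2-/-, p53-/- MEFs after 24 h compound exposure, normalized to propidium iodide signal. Activity is expressed as % positive cells, thresholded with 7.5 nM rapamycin.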

Activity change, negative = inhibition, inactive:
O=C(NCCn1ccc2ccccc21)c1ccc(Cl)cc1 -17%, CCc1ccccc1OCC(=O)Nc1ccc(S(=O)(=O)Nc2nc(C)cc(C)n2)cc1 -0.91%, CCOc1ccccc1-n1nnc(-c2nsc(NC(=O)c3ccc(C)cc3)n2)c1C -13.2%, CCOC(=O)c1c(-c2ccc(C)cc2)csc1NC(=O)c1cc(=O)c2ccc(C)cc2o1 -13.6%, CSc1cccc(Nc2cc(C(=O)NCCCN(C)c3ccccc3)c3ccccc3n2)c1 -9.67%, COc1ccc(NC(=O)Cn2c(=O)n(Cc3nc(-c4ccccc4)no3)c(=O)c3ccccc32)cc1Cl -2.11%, COc1ccc(/C=C/C(=O)Nc2nc3n(n2)C(c2ccc(F)cc2)C=C(c2ccccc2)N3)cc1 (stereo not given) 2.92%, CC(=O)N1CCc2cc(S(=O)(=O)NC(C(=O)Nc3ccc(C)cc3C)C(C)C)ccc21 (stereo not given) -23.8%, COc1ccc(NC(=O)C2CCCN(S(=O)(=O)c3ccc(Br)s3)C2)cc1 (stereo not given) -6.65%, CCOC(=O)c1c(NC(=O)c2cc(-c3cccc(OC)c3)on2)sc2c1CCCC2 1.38%, COc1ccc(CC(=O)NCC(c2cccs2)S(=O)(=O)c2ccc(C)cc2)cc1 (stereo not given) -15.9%, COc1cccc(CNC(=O)Cc2c(C(=O)O)c(C)cn2C)c1 -9.66%, CC(C)c1ccc(NC(=O)CN2C(=O)COc3ccc(S(=O)(=O)N4CCCCCC4)cc32)cc1 -29.1%, CCc1ccc(NC(=O)Cn2c(=O)n(Cc3ccco3)c(=O)c3oc4ccccc4c32)cc1 0.0604%, O=C(NCc1cccs1)c1ccc(CSc2nc3cccnc3n2Cc2ccccc2F)cc1 -0.0611%, Cc1cc(C)c(NC(=O)Cn2cnc3c(oc4ccccc43)c2=O)c(C)c1 11.9%, Cc1oc(-c2ccccc2Cl)nc1CSc1nc2ncccc2[nH]1 -0.922%, COc1ccccc1N1CCN(c2ncnc3onc(-c4cccc(Cl)c4)c23)CC1 -0.552%, O=C(NCc1cccc(Cl)c1)c1ccc2nc(N3CCCCC3)sc2c1 -3.61%, CCOC(=O)c1c(C)n(-c2ccccc2)c2ccc(OC(=O)c3cccc(OC)c3OC)cc12 3.4%, CCc1cccc(N2C(=O)CSC23C(=O)Nc2ccccc23)c1 (stereo not given) 0.56%, CCN(CC)C(=O)c1ccc(Nc2nnc(-c3ccc(C)c(S(=O)(=O)NC)c3)c3ccccc23)cc1 12.8%, COc1ccc(S(=O)(=O)Nc2c(C)nc3nc(C)[nH]n3c2=O)cc1 -17.7%, CCCN(C(=O)c1cc2c(=O)[nH]c3ccc(C)cc3c2s1)c1ccc(CC)cc1 -7.24%, CC1CCN(C(=O)c2cc(-c3ccc(Br)cc3)on2)CC1 -3.99%, CCOC(=O)C1CCCN(C(=O)c2nn(-c3ccc(C)cc3)c(=O)n(C)c2=O)C1 (stereo not given) 0.115%, CCOc1ccc(CNS(=O)(=O)c2ccc3c(c2)CCCN3C(C)=O)cc1OC -28.9%, COc1ccc(C2=C(C)C(=O)N(Cc3ccc(C(=O)NCc4cccc(C)c4)cc3)S2(=O)=O)cc1 -12.1%, COc1ccc2c(c1)c(N1CCCC1=O)c(C(=O)Nc1ccccc1C(F)(F)F)n2C -1.04%, COc1ccc(-c2noc(N3CCC(C(=O)N4CCN(c5cccc(C)c5C)CC4)CC3)n2)cc1 0.547%, COc1ccc(C2=NC(c3ccncc3)=Nc3ccc(OC)cc3N2)cc1 1.29%, CCOc1ccc(NC(=O)CCNS(=O)(=O)c2cccc3nonc23)cc1 4.41%, O=C(COc1ccc(F)cc1)Nc1ccc2nc(SCC(=O)N3CCOCC3)sc2c1 -11.2%, COc1ccc(-c2noc(COc3cc(C)ccc3C)n2)cc1OC -13%, O=C1[C@@H]2CSC(c3ccc(Cl)cc3)N2C(=O)N1c1ccccc1 (stereo not given in full) -9.23%, CC(C)c1ccc(N2C(=O)CSC23C(=O)N(C)c2ccccc23)cc1 (stereo not given) -2.97%, O=C1CCCc2cc(S(=O)(=O)N3CCCC(C(=O)NCc4ccccc4)C3)ccc2N1 (stereo not given) -2.84%, CC(=O)c1cccc(NC(=O)c2nc(-c3ccccc3)n(-c3ccccc3)n2)c1 3.77%, Cc1cc(C)c(NC(=O)CN(C)S(=O)(=O)c2ccc3c(c2)CCC(=O)N3)c(C)c1 -2.23%, COc1cc2c(cc1OC)n(Cc1cccc(C(F)(F)F)c1)c(=O)n1nc(-c3ccccc3)nc21 1.02%, COc1cccc(NC(=O)CCNS(=O)(=O)c2ccc3c(c2)oc(=O)n3C)c1 -0.982%, COc1ccc(CNC(=O)c2cc3c(=O)n(Cc4ccco4)ccc3nc2C)cc1 -7.93%, Cc1cc(C)c(NC(=O)CCS(=O)(=O)c2cc3c(cc2Cl)NC(=O)CO3)c(C)c1 0.427%, CCOc1ccc(NS(=O)(=O)c2cc3c(cc2Cl)NC(=O)CO3)cc1 -14%, CC(=O)Nc1ccc(NC(=O)CCCn2nc(C)c3sc4ccccc4c3c2=O)cc1 0.769%, CCOc1ccc(N(C)S(=O)(=O)c2ccc3c(c2)CCCN3C(C)=O)cc1 -7.34%, O=C(CSCn1nnc2c(=O)[nH]c(Cc3ccc(F)cc3)nc21)Nc1cccc(C(F)(F)F)c1 -4.76%, COc1cc2c(cc1OC)C(COc1cccc(C(F)(F)F)c1)N(C(=O)c1ccc(S(=O)(=O)N3CCCC3)cc1)CC2 (stereo not given) 2.35%, CCc1ccccc1NC(=O)C(=O)NCCCN1CCOCC1 -3.31%, CCC(C)NC(=O)C1CCN(S(=O)(=O)c2ccc3c(c2)CCCN3C(C)=O)CC1 (stereo not given) 0.429%, CCn1cc(C(=O)N2CCN(c3ccc(C)cc3)C(C)C2)c(=O)c2cc(S(=O)(=O)N3CCCC3)ccc21 (stereo not given) 0.236%, CNC(=O)CCCN1C(=O)c2cccnc2Sc2ccccc21 -2.94%, CCOc1cc(C(=O)NCCc2sc(-c3ccc(F)cc3)nc2C)cc(OCC)c1OCC 0.196%, Cc1nc2ccc(S(=O)(=O)N(CC(=O)Nc3ccc(F)cc3F)Cc3ccccc3)cc2s1 -10.4%, CCOc1ccc(NC(=O)c2ccc3[nH]c(C)c(C)c3c2)cc1 4.79%, Cc1ccc(S(=O)(=O)Nc2cccc(-c3cn4cccc(C)c4n3)c2)c(C)c1 -13.1%, O=C(Cn1c(=O)c2cccn2c2cccnc21)NCc1cccc(F)c1 -3.79%, O=C(Cn1c(SCc2ccccc2F)nc2ccncc21)Nc1ccccc1C(F)(F)F 1.66%, CCCCN(C)C(=O)c1cn(C)c2ccc(S(=O)(=O)N3CCC(C)CC3)cc2c1=O -8.08%, O=C(Cn1ccc2cc(S(=O)(=O)N3CCCCC3)ccc21)NCCc1ccccc1Cl -14.2%
